Experimental data published in the supplement of paper PMC3334620.
Whole data set: some 33,000 sequences, median “E-score (-0.5 to 0.5)” near -0.035, cut for the highest 2% near 0.34. The list shows a part of the results.

Biological target: T1, Mot3 (UniProt P54785)
T1 sequence: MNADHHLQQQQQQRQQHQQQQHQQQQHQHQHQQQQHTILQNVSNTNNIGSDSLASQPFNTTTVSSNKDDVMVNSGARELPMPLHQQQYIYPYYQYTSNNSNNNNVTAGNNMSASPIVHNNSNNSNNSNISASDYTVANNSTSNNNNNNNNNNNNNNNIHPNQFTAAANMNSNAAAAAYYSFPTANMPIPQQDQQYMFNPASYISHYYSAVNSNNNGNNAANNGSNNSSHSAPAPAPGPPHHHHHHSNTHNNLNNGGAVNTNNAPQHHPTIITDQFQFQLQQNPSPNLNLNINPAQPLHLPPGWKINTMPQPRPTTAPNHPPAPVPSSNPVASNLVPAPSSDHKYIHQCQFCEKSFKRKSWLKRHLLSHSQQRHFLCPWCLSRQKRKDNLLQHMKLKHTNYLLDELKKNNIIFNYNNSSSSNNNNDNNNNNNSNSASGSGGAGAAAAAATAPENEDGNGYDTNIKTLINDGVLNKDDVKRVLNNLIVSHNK
Experiment: PBM E-score (8-mer binding enrichment) (E-score (-0.5 to 0.5)); higher = stronger / more preferred TF binding; most listed sequences are background and not binding sites
Details: protein concentration: 200 nM; construct: GST-full length
Experimental: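 Universal 'all 10-mer' protein binding microarrays (Agilent AMADID 015681) probed with GST-tagged S. cerevisiae TFs (full-length or DBD) made by in vitro transcription/translation (PURExpress), about 100-200 nM. Bound TF was detected with fluorescent anti-GST. Each ungapped 8-mer (which stands for itself and its reverse complement) is scored by the PBM enrichment score (E-score), a modified Wilcoxon-Mann-Whitney statistic from -0.5 to +0.5, computed with the Universal PBM Analysis Suite. Scale: above 0.35 generally sequence-specific binding.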

Row | Sequence | PBM E-score
1 | CTTCCGGA | -0.129
2 | AAGATCCA | -0.211
3 | CTTTCTTA | 0.107
4 | GTTCAATA | -0.0296
5 | TATCCCCA | -0.122
6 | GAATAGTC | -0.0927
7 | GCGTAATA | 0.308
8 | AGTACGCG | 0.289
9 | GACTCGGC | -0.194
10 | CCGATTAA | -0.071
11 | GCCGTCCC | -0.178
12 | CCTCGGAC | -0.337
13 | ACTCGACG | 0.0488
14 | GCCTCCGC | 0.0936
15 | GTCGCACA | -0.125
16 | GCGCCAAA | -0.0398
17 | CATTGTCC | 0.0141
18 | ACATCGTC | 0.0483
19 | AATACTTC | -0.00018
20 | CGTAACCC | -0.0844
21 | CGATGAAA | 0.0797
22 | AGTAAACG | 0.112
23 | AGATGCCT | 0.331
24 | CAAATCAC | -0.148
25 | CATATGGG | -0.138

Row | Sequence | PBM E-score
26 | GAAGAGAA | -0.0238
27 | ATAGGAGC | 0.0425
28 | AATTTCGA | 0.0443
29 | TATCTGAA | -0.103
30 | CTCGACCC | -0.0975
31 | AAGACGGA | -0.226
32 | AAAAACCG | 0.0673
33 | TGCAGGAA | 0.443
34 | CCTAATTC | 0.0397
35 | ATAGGCTA | 0.0381
36 | CTAGACAC | 0.0958
37 | GTAGATTA | 0.269
38 | CAACTTTC | 0.0699
39 | GAGAGGTA | -0.035
40 | CGGTGCAG | -0.0468
41 | ACCTCTAC | 0.0723
42 | GGACCCCA | -0.102
43 | GTTAACAA | 0.308
44 | CTCTTTGC | -0.0152
45 | AACAGTTC | -0.0284
46 | CTAACACA | 0.313
47 | CCCGAGCC | -0.0593
48 | CCACTACC | -0.13
49 | CCTCCGAC | -0.227
50 | GGAGCGCC | -0.237

Row | Sequence | PBM E-score
51 | CTATTATA | 0.148
52 | ATGTTAGA | 0.284
53 | TATTGGCA | 0.0112
54 | CACTAGGA | -0.185
55 | AAGCACTA | 0.0213
56 | AACTACGA | -0.024
57 | TCGCCCCA | -0.213
58 | GCTCCTTA | -0.0544
59 | GTTTTAGA | 0.134
60 | CCTAAAGG | 0.137
61 | AGCTGCAG | -0.215
62 | ATCACTCG | -0.025
63 | CCAGGATC | -0.17
64 | AGCAGGTC | -0.0131
65 | AGACTGCA | -0.185
66 | AACAGGAA | 0.416
67 | CCCAAATC | -0.19
68 | CCAGTCCA | -0.21
69 | CATCTGTC | -0.359
70 | CCACGGGC | -0.226
71 | AGATTAAC | 0.0852
72 | ATACCAGG | -0.148
73 | ACCGCAGC | -0.124
74 | GTTTAAGA | -0.0499
75 | ACGCAGAA | -0.0612

Row | Sequence | PBM E-score
76 | ACAATTGA | 0.151
77 | CCCGCTCG | -0.291
78 | CTCTCAGC | -0.147
79 | AGTTTGAA | 0.0908
80 | CCTTACCG | 0.0983
81 | ATATTGTA | 0.0434
82 | AGCATGCA | 0.0082
83 | AGACACCT | -0.0314
84 | CACTAATA | 0.149
85 | CTCAAGAG | -0.187
86 | AGCTCTAA | -0.211
87 | GTATTGTA | 0.297
88 | TAGGATGA | -0.156
89 | ATAGTTAG | -0.179
90 | ATGTAGAC | 0.287
91 | CATCGATG | 0.0376
92 | AAGCCAAG | -0.119
93 | ATAGTACG | -0.0583
94 | ATTGGACA | -0.0877
95 | CAATGATC | -0.147
96 | GGGCTACC | -0.337
97 | CTGCGACA | -0.0745
98 | CACACGGA | 0.0661
99 | ACCATAGC | -0.322
100 | AAAAGCAC | -0.103

Row | Sequence | PBM E-score
101 | ACACGTTA | 0.345
102 | AAAAATTC | 0.138
103 | CACCTCCA | -0.138
104 | CACGTGCG | 0.206
105 | ATTAGCCG | -0.128
106 | CTTGTTGC | 0.188
107 | TAACAACA | 0.314
108 | AAATTTGC | 0.00237
109 | AAATACTA | 0.0828
110 | ATTGACAA | 0.145
111 | TATACCGA | -0.0353
112 | CCAGCAAA | -0.216
113 | AAGCCTGC | 0.12
114 | CACGTAAG | 0.204
115 | CCGCTGTC | -0.232
116 | ACATTGTC | 0.144
117 | AAACCCAC | -0.0258
118 | CGAGTCCC | -0.229
119 | CAATAGGG | 0.0283
120 | ACCTAGCG | 0.0407
121 | AGGGGCGG | -0.279
122 | ATAGCTGG | -0.242
123 | CGTATGAC | 0.146
124 | CATGGGTA | 0.0164
125 | ATAATCAG | 0.13

Row | Sequence | PBM E-score
126 | GAGGACCC | -0.265
127 | GATGAAGC | -0.224
128 | GGCTCGAA | 0.00294
129 | TCTACCCA | -0.077
130 | GTCTGGTA | -0.209
131 | AACGTTCA | -0.00282
132 | ATCAAAAT | 0.0437
133 | GGTAGGAA | 0.313
134 | AATACTAA | 0.00861
135 | CCAAGAAA | 0.0226
136 | TGCACGCA | -0.0502
137 | CATGCGTA | 0.324
138 | AGGGCATC | -0.163
139 | CGCTTAAG | -0.0278
140 | AAACAGAC | 0.0793
141 | GGTGAATA | -0.242
142 | ACGGACTA | 0.0015
143 | CCGTCGCC | -0.133
144 | ATCTGATC | 0.00181
145 | TAACCGAA | 0.115
146 | CGCTGATC | -0.159
147 | AAATCCGA | -0.0221
148 | CGTGGTAG | -0.0382
149 | GTGACCTA | 0.082
150 | AGCTCAGG | -0.114

Row | Sequence | PBM E-score
151 | AGTTTTGG | 0.0121
152 | CCCCATAC | 0.00082
153 | CCTTGTAC | 0.272
154 | AAGCCGGC | -0.226
155 | AGCGTATA | 0.0388
156 | ATATACTC | -0.0816
157 | CACTATAA | 0.103
158 | CATCCAGG | -0.0983
159 | GGAACCAC | 0.0546
160 | ACGCAGCT | 0.0925
161 | AGCAATTG | 0.0402
162 | CCAAGGTC | -0.222
163 | GCGGTCTA | 0.155
164 | CCCTGAAG | -0.248
165 | GACTTGAA | -0.135
166 | TAATGTAA | 0.354
167 | AGCAGCCA | -0.121
168 | AGAAACCC | 0.0651
169 | AGTCACCG | 0.0455
170 | CAAGAAAA | 0.132
171 | CAATGGAG | -0.116
172 | TACCCGCA | -0.0947
